± gives the uncertainty stated by the source. The sequences are guide strands of siRNAs; only the seed at positions 2 to 7 varies.
Columns and labels:
3LL = test: cell viability relative to siNT1 control; higher = less toxic; conditions: concentration: 10 nM; 96 h; Mus musculus;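 note: Luminescence-based viability of cells reverse transfected in 384-well plates with lipid-complexed siRNAs built on a non-toxic 19mer backbone whose passenger strand carries 2′-O-methyl groups at positions 1 and 2, triplicates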
H460 = test: cell viability relative to lipid-only control; HeyA8 human ovarian and H460 human lung cancer; M565 mouse liver and 3LL mouse lung cancer; siNT1 is a non-toxic control siRNA; higher = less toxic; conditions: concentration: 10 nM; 96 h; Homo sapiens
HeyA8 = test: as above; conditions: concentration: 10 nM; 96 h; Homo sapiens
M565 = test: as above; conditions: concentration: 10 nM; 96 h; Mus musculus
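Throughout, for cell viability relative to lipid-only control: reverse lipid transfection in 384-well plates, in triplicate, of duplexes on a non-toxic 19mer backbone with passenger strand 2′-O-methylated at positions 1 and 2, luminescence viability read-out.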

Q: UUUGGUAACAUGUAAACCAAA was tested. Which cell viability (3LL) did it give?
A: 102 ± 6.7%

Q: What about the cell viability (H460) of the same sequence?
A: 90.2 ± 9.4%

Q: And the cell viability (HeyA8)?
A: 105 ± 5.8%

Q: What about the cell viability (M565) of the same sequence?
A: 80 ± 21%

Q: With UUUGGUCACAUGUAAACCAAA as the sequence, how does the cell viability (3LL) read?
A: 74.4 ± 7.8%

Q: What about the cell viability (H460) of the same sequence?
A: 47.6 ± 4.5%

Q: And the cell viability (HeyA8)?
A: 85.5 ± 6.5%

Q: What about the cell viability (M565) of the same sequence?
A: 84.7 ± 10%

Q: Which results are given for UUUGGUGACAUGUAAACCAAA?
A: cell viability (3LL): 98.7 ± 5.5%; cell viability (H460): 77.44 ± 0.32%; cell viability (HeyA8): 101 ± 1.9%; cell viability (M565): 79.7 ± 5.8%

Q: With UUUGGUUACAUGUAAACCAAA as the sequence, how does the cell viability (3LL) read?
A: 106 ± 7.9%

Q: And the cell viability (H460)?
A: 88.8 ± 9.2%

Q: And the cell viability (HeyA8)?
A: 103 ± 5.9%

Q: And the cell viability (M565)?
A: 90.2 ± 11%

Q: For UUUGUAAACAUGUAAACCAAA, which cell viability (3LL) is on record?
A: 98.6 ± 15%

Q: And the cell viability (H460)?
A: 81.3 ± 4.9%

Q: What about the cell viability (HeyA8) of the same sequence?
A: 98.9 ± 6.1%

Q: And the cell viability (M565)?
A: 89.7 ± 3.6%

Q: With UUUGUACACAUGUAAACCAAA as the sequence, how does the cell viability (3LL) read?
A: 86.7 ± 6.1%

Q: What about the cell viability (H460) of the same sequence?
A: 68.6 ± 0.68%

Q: And the cell viability (HeyA8)?
A: 69.4 ± 3.3%

Q: And the cell viability (M565)?
A: 79.8 ± 14%

Q: UUUGUAGACAUGUAAACCAAA was tested. Which cell viability (3LL) did it give?
A: 103 ± 7.3%

Q: And the cell viability (H460)?
A: 81.7 ± 8%

Q: And the cell viability (HeyA8)?
A: 88.3 ± 3.8%

Q: What about the cell viability (M565) of the same sequence?
A: 75.2 ± 13%

Q: Which results are given for UUUGUAUACAUGUAAACCAAA?
A: cell viability (3LL): 65.2 ± 7.6%; cell viability (H460): 89.9 ± 8.5%; cell viability (HeyA8): 88.7 ± 7.4%; cell viability (M565): 94.9 ± 15%

Q: Which results are given for UUUGUCAACAUGUAAACCAAA?
A: cell viability (3LL): 97.9 ± 13%; cell viability (H460): 70.1 ± 4.8%; cell viability (HeyA8): 102 ± 3%; cell viability (M565): 97.6 ± 28%

Q: For UUUGUCCACAUGUAAACCAAA, which cell viability (3LL) is on record?
A: 57.8 ± 9%

Q: And the cell viability (H460)?
A: 54.2 ± 8.1%

Q: And the cell viability (HeyA8)?
A: 85.7 ± 4.7%

Q: What about the cell viability (M565) of the same sequence?
A: 48.3 ± 13%

Q: Which results are given for UUUGUCGACAUGUAAACCAAA?
A: cell viability (3LL): 103 ± 11%; cell viability (H460): 69.3 ± 6.8%; cell viability (HeyA8): 104 ± 4.7%; cell viability (M565): 65.4 ± 13%

Q: Which results are given for UUUGUCUACAUGUAAACCAAA?
A: cell viability (3LL): 91.3 ± 9.3%; cell viability (H460): 77.9 ± 1.3%; cell viability (HeyA8): 69.8 ± 6.8%; cell viability (M565): 78.4 ± 8.3%

Q: Which results are given for UUUGUGAACAUGUAAACCAAA?
A: cell viability (3LL): 97.8 ± 12%; cell viability (H460): 64.3 ± 11%; cell viability (HeyA8): 87.2 ± 6.5%; cell viability (M565): 57.9 ± 6.5%

Q: With UUUGUGCACAUGUAAACCAAA as the sequence, how does the cell viability (3LL) read?
A: 81.2 ± 4.3%

Q: And the cell viability (H460)?
A: 84.9 ± 5.6%

Q: And the cell viability (HeyA8)?
A: 61 ± 3%

Q: What about the cell viability (M565) of the same sequence?
A: 69 ± 7.7%

Q: How did the cell viability (3LL) turn out when UUUGUGGACAUGUAAACCAAA was run?
A: 57.6 ± 5.8%

Q: What about the cell viability (H460) of the same sequence?
A: 64.7 ± 15%

Q: What about the cell viability (HeyA8) of the same sequence?
A: 63.6 ± 5.1%

Q: And the cell viability (M565)?
A: 39.3 ± 4.5%

Q: Which results are given for UUUGUGUACAUGUAAACCAAA?
A: cell viability (3LL): 77.7 ± 5.5%; cell viability (H460): 73 ± 11%; cell viability (HeyA8): 63.6 ± 1.1%; cell viability (M565): 69 ± 5.5%

Q: How did the cell viability (3LL) turn out when UUUGUUAACAUGUAAACCAAA was run?
A: 103 ± 2.2%

Q: And the cell viability (H460)?
A: 100 ± 4.7%

Q: And the cell viability (HeyA8)?
A: 92 ± 9.7%

Q: And the cell viability (M565)?
A: 95.5 ± 12%

Q: UUUGUUCACAUGUAAACCAAA was tested. Which cell viability (3LL) did it give?
A: 91.3 ± 12%

Q: What about the cell viability (H460) of the same sequence?
A: 81.1 ± 12%

Q: What about the cell viability (HeyA8) of the same sequence?
A: 62.7 ± 4.1%

Q: What about the cell viability (M565) of the same sequence?
A: 35.7 ± 4.6%

Q: With UUUGUUGACAUGUAAACCAAA as the sequence, how does the cell viability (3LL) read?
A: 101 ± 10%

Q: And the cell viability (H460)?
A: 89.1 ± 8.7%

Q: And the cell viability (HeyA8)?
A: 84 ± 7.5%

Q: And the cell viability (M565)?
A: 71.5 ± 2%

Q: Which results are given for UUUGUUUACAUGUAAACCAAA?
A: cell viability (3LL): 98 ± 3.7%; cell viability (H460): 84.1 ± 5.3%; cell viability (HeyA8): 95.1 ± 2.4%; cell viability (M565): 96.9 ± 5.5%

Q: How did the cell viability (3LL) turn out when UUUUAAAACAUGUAAACCAAA was run?
A: 96.5 ± 3.6%

Q: And the cell viability (H460)?
A: 75.8 ± 11%

Q: And the cell viability (HeyA8)?
A: 96.7 ± 10%

Q: And the cell viability (M565)?
A: 92.8 ± 4.6%

Q: Which results are given for UUUUAACACAUGUAAACCAAA?
A: cell viability (3LL): 89.9 ± 3.7%; cell viability (H460): 82.2 ± 5.1%; cell viability (HeyA8): 92.4 ± 6.8%; cell viability (M565): 117 ± 7.9%

Q: How did the cell viability (3LL) turn out when UUUUAAGACAUGUAAACCAAA was run?
A: 99.7 ± 6%

Q: And the cell viability (H460)?
A: 66.7 ± 7.7%

Q: What about the cell viability (HeyA8) of the same sequence?
A: 96.9 ± 6.4%

Q: What about the cell viability (M565) of the same sequence?
A: 89 ± 5%

Q: UUUUAAUACAUGUAAACCAAA was tested. Which cell viability (3LL) did it give?
A: 102 ± 7.5%

Q: And the cell viability (H460)?
A: 80.3 ± 9.1%

Q: What about the cell viability (HeyA8) of the same sequence?
A: 101 ± 8.1%

Q: What about the cell viability (M565) of the same sequence?
A: 95.6 ± 6.2%

Q: What does the source list for UUUUACAACAUGUAAACCAAA?
A: cell viability (3LL): 91.2 ± 3.8%; cell viability (H460): 65.2 ± 1.6%; cell viability (HeyA8): 98.3 ± 9.2%; cell viability (M565): 91.5 ± 7.8%

Q: Which cell viability (3LL) does the source give for UUUUACCACAUGUAAACCAAA here?
A: 52.7 ± 3.4%

Q: And the cell viability (H460)?
A: 36.1 ± 2.5%

Q: And the cell viability (HeyA8)?
A: 62.1 ± 18%

Q: What about the cell viability (M565) of the same sequence?
A: 95.3 ± 14%

Q: UUUUACGACAUGUAAACCAAA was tested. Which cell viability (3LL) did it give?
A: 98.1 ± 9.1%

Q: And the cell viability (H460)?
A: 63.5 ± 4.7%

Q: What about the cell viability (HeyA8) of the same sequence?
A: 101 ± 3.1%

Q: What about the cell viability (M565) of the same sequence?
A: 80.6 ± 16%

Q: With UUUUACUACAUGUAAACCAAA as the sequence, how does the cell viability (3LL) read?
A: 93.5 ± 7.6%

Q: And the cell viability (H460)?
A: 72.4 ± 11%

Q: And the cell viability (HeyA8)?
A: 98.6 ± 10%

Q: What about the cell viability (M565) of the same sequence?
A: 93.8 ± 7.5%

Source: the supplement of paper PMC6206098
